We go through one molecule from PubChem BioAssay (NCI).

Where a structure was tested more than once in an assay, its records may differ in their call.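 Cells were grown in 96-well plates and exposed to the test compound at a single concentration for 48 hours; results are reported as percent growth, with values below 10 considered active.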 For part of its entries the source gives two or more results. This list holds those alone. An entry can have further records. These are repeated runs of one drug, at its own concentration, as given; each value is one run. Additions like (4×) stand for listed records that agree.

What all share (assay): NCI-60 one-dose screen, 48 h (100 = growth as untreated, 0 = no growth, -100 = all killed)
Assay [1] deals with SK-MEL-2 melanoma. Particulars: 2.5 mM.
The subject of assay [2] is EKVX NSCLC. Conditions: 2.5 mM.
The test system of assay [3] is SN12C renal. Conditions: 2.5 mM; runs of 1991.

Turning to `O=c1[nH]cc(F)c(=O)[nH]1`, the growth result is “inactive: 50.4, 15.9, 18, 64.1, 45.7, 30, 65.3, 45.1 (2×), 35.8, 37.6, 50.9, 42.7, 40.4, 44.7, 31.1, 44.5, 64.6, 25.4, 44.6, 17.1, 54.5, 44.1, 18.3, 33.9, 12.6, 28.3, 18.6, 51.7, 24, 33.1, 34.7, 48.1, 66.4, 35.6, 50.3, 51.9, 47.1, 37.8, 41.9, 40.6% and active: 7.02%, -28.1%, 7.47%” in assay [1] (runs of 1997); “inactive: 38.1, 54 (2×), 47.9, 44.3, 19, 26.8, 51.8, 19.6, 42, 56.6, 63.2, 49, 46.5, 49.4, 33.2, 34.6, 40.6% and active: 1.45, 8.74, -0.394, -15%” in assay [1] (runs of 1998); “active: 6.87, -17.1, -30.7, -15.9, -19.4, 0.761, -62.2, -0.215, -63.8, -53.7, -50.4, -55.7, -44.2, -64.9% and inactive: 54.6, 51.1, 46.3, 26%” in assay [1] (runs of 1999); “active: -54.5, -42.3, -3.37, -56%” in assay [1] (runs of 2000); “inactive: 29.7, 50.9, 58.7, 64.2, 53.2, 57.3, 34.2, 37.8, 33.1, 46.7, 51.4, 25.1, 50, 28.9, 43, 44.6, 42, 57.7, 63.8%” in assay [2] (runs of 1991); “inactive: 55.5, 45.9, 53.6, 79, 53.5 (2×), 43.6, 56.3, 37.6, 51.9, 33.2, 50.7 (3×), 41.6 (2×), 38, 43.7, 51, 37.4, 44.1, 63.2, 16.5 (2×), 64, 46.8, 72.3, 41.5, 20.8, 49.3, 45.3, 50.3, 51.3, 40.3, 47.1, 67.4, 75.2, 28.2, 63.6, 72.8, 58.2, 62.6, 91.2, 66.8, 61.7, 42.5, 65.5, 26.7, 49.1, 49.6, 52.6, 47.8, 54.8, 52.4, 66.7, 64.9, 127, 31.8, 38.9, 40.7, 50, 49.4, 51.4, 49.5, 40.1, 61.5, 84.4, 65.8, 93.1, 63.5, 26.8, 26.1, 24.7, 29.3, 44.5, 42.8, 64.4, 54.9, 55.2 (2×), 62.2, 59.8, 77.4, 50.1, 49, 70.9, 56.4, 38.8, 45.7 (2×), 45.4, 48, 40.8, 42.7, 53.1, 48.4, 50.8, 71.6, 31.9, 41.1, 101, 56.5, 43.1, 41.3, 57.4, 37.8, 36.7, 38.6, 68.7, 44.6, 36% and active: -27.1%, -54.9%” in assay [2] (runs of 1992). In addition, the growth entry in assay [2] (runs of 1993) is “inactive: 43.4, 41.9, 19, 48.3, 85.8, 47.1 (2×), 68.6, 24.8, 46.9, 78.9, 57.8, 61.9, 71.1, 35.3, 39.6, 48.8, 44.7, 54.2, 56.7, 49.9, 46.5, 33.5, 63.8, 42, 42.7, 23.7, 56.5, 57.7, 26.6, 34, 45.8 (2×), 40.3, 72.5, 99.2, 53.1, 27.7, 50.4, 59.9, 47.5, 61.6, 49.4%”; in assay [2] (runs of 1994), “inactive: 51.8, 32.6, 52.7, 61.8, 62, 34.8, 59.7, 63, 44.5, 23.6, 45.4, 39.7, 63.6, 37.2, 50.7, 26.5, 55, 53.4, 61.1, 43, 54.5, 37, 52.8, 44.1, 59, 53.2, 37.5, 48.2, 33.5, 52.5%”; in assay [2] (runs of 1995), “inactive: 45.2, 35.3, 47.8, 47.6, 30.7, 61.9, 63.2, 34.2, 49.9 (2×), 48.6, 43.1, 48, 45.6, 51.5, 58, 60.9, 40.6, 70.6, 26.1, 53.3, 49, 50.2, 55.8, 40.5, 33.5, 62.9, 31.6, 32.2, 44.6, 38.3, 62.2, 50.3, 42.1, 36.2, 47.3, 72.6%”; in assay [2] (runs of 1996) it was “inactive: 30.1, 15.2, 57.8 (2×), 18.4, 53.3, 51.9, 37.6, 53.6, 42.5, 35.6, 47.2, 39.8, 42.4, 46.1, 40.9, 35.7, 49.6, 51, 29.4, 47.3, 58.1 (2×), 42, 44.5, 50, 46.6, 29.6, 51.4, 39.5, 26.8, 43.1 (2×), 31.6, 42.2, 46.9, 31, 34.5, 43.2, 42.8, 47, 47.5, 44.2, 76.3, 48.2, 32.4, 41.5, 46.2, 45.2, 65, 68.7, 74.9, 68.1, 63.5, 56% and active: 9.72%, 4.01%, 9.41%”; in assay [2] (runs of 1997) it was “inactive: 39.9 (3×), 55, 44.9, 59.7, 48.1, 65.9, 26.3, 36.2, 44, 46.1, 44.2, 63.1, 61.1, 57.3, 41.8, 45.2, 51.8, 47.1, 47.5, 53.6, 47.8, 58.1, 66.6, 55.9, 28.8, 40.8, 26.6, 48.9, 24.2, 76.8, 109, 41.5, 38.6, 31.6, 29.7, 35.6, 36.5, 32.9, 30.6% and active: -3.58%, 9.99%”; in assay [2] (runs of 1998), “inactive: 62.8, 47.1, 77.1, 25.6, 58.5, 46.4, 50.2, 52.7, 46.8, 56.9, 65.1, 15.8, 28.6, 30.5, 40.8, 33.7, 50.3% and active: -28.1, 9.08, -6.61, -11.6, -4.23, -4.71%”. Also, the growth entry was “inactive: 13.2, 37.7, 19.5, 36.2, 17.2, 50.3% and active: -31.7, 2.46, 1.23, 0.433, -100%” in assay [2] (runs of 1999); “active: -86.6%, -23%, -19%” in assay [2] (runs of 2000); “inactive: 40.9, 35.2, 36, 43.4, 39.9, 32.9 (2×), 33.2, 20.8, 25, 26.3, 38.2, 37.2, 33.9, 31.9, 29.3 (2×), 32.6, 83.2, 32.2%” in assay [3].
